From the supplement of paper PMC4604168 (melanoma cell lines)
This is one part of the list. Repeats are few or missing, and single values can be far off.

Tested on: MEL-HO
Assay: cell count relative to DMSO control; melanoma cells; higher = more viable cells
Conditions: library dose: standard library concentration; 72 h
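Note: cells treated in 1,536-well plates, then fixed and DAPI-stained, with nuclei counted from automated high-throughput microscope images.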

Which cell count does the source give for `COCC[n+]1c2c(n(Cc3cnccn3)c1C)C(=O)c1ccccc1C2=O` + CCc1ccc(CCOc2ccc(CC3SC(=O)NC3=O)cc2)nc1 [pioglitazone] (first compound 0.002 µM, partner dose 10 µM) here?
Its cell count is 86.9%.

With `Clc1ccc(Nc2nnc(Cc3ccncc3)c3ccccc23)cc1` [vatalanib] + Oc1cc(-c2nc(-c3ccccc3)[nH]c2-c2ccncc2)ccc1Cl [L779450] (first compound 10 µM, partner dose 1 µM) as the molecule, how does the cell count read?
Its cell count is 59.7%.

`Clc1ccc(Nc2nnc(Cc3ccncc3)c3ccccc23)cc1` [vatalanib] + Cn1cc(/C=C2\C(=O)Nc3cccnc32)c2ccccc21 [GW441756] (first compound 10 µM, partner dose 2 µM) was tested. Which cell count did it give?
The cell count was 65.2%.

How did the cell count turn out when `Nc1cccc2c1CN(C1CCC(=O)NC1=O)C2=O` (centres undefined) [lenalidomide] + O=S(=O)(c1ccccc1)N(CC(F)(F)F)c1ccc(C(O)(C(F)(F)F)C(F)(F)F)cc1 [T0901317] (first compound 5 µM, partner dose 7 µM) was run?
Its cell count is 94.4%.

How did the cell count turn out when `Nc1cccc2c1CN(C1CCC(=O)NC1=O)C2=O` (centres undefined) [lenalidomide] + CN(C)S(=O)(=O)c1ccc2c(c1)/C(=C/c1cc3c([nH]1)CCCC3)C(=O)N2 [SU6656] (first compound 5 µM, partner dose 2 µM) was run?
The cell count was 101%.

`C#Cc1cccc(Nc2ncnc3cc(OCCOC)c(OCCOC)cc23)c1` [erlotinib] + COc1cc(Nc2ncc(F)c(Nc3ccc4c(n3)NC(=O)C(C)(C)O4)n2)cc(OC)c1OC [Tamatinib] (first compound 4 µM, partner dose 2 µM) was tested. Which cell count did it give?
Its cell count is 80%.

How did the cell count turn out when `Nc1cccc2c1CN(C1CCC(=O)NC1=O)C2=O` (centres undefined) [lenalidomide] + CC(C)(C)c1cnc(CSc2cnc(NC(=O)C3CCNCC3)s2)o1 [SNS-032] (first compound 5 µM, partner dose 0.05 µM) was run?
The cell count was 103%.

How did the cell count turn out when `O=C(CCCCCCC(=O)Nc1ccccc1)NO` [vorinostat] + CC(C)(C)c1cnc(CSc2cnc(NC(=O)C3CCNCC3)s2)o1 [SNS-032] (first compound 0.4 µM, partner dose 0.05 µM) was run?
Its cell count is 88.7%.

`Clc1ccc(Nc2nnc(Cc3ccncc3)c3ccccc23)cc1` [vatalanib] + O=C(Nc1ccccc1)c1cc([N+](=O)[O-])ccc1Cl [GW9662] (first compound 10 µM, partner dose 10 µM) was tested. Which cell count did it give?
The cell count was 54.4%.

`COCC[n+]1c2c(n(Cc3cnccn3)c1C)C(=O)c1ccccc1C2=O` + COc1cc(N2CCC(N3CCN(C)CC3)CC2)ccc1Nc1ncc(Cl)c(Nc2ccccc2S(=O)(=O)C(C)C)n1 [NVP-TAE684] (first compound 0.002 µM, partner dose 0.4 µM) was tested. Which cell count did it give?
The cell count was 82.3%.

Which cell count does the source give for `O=C(CCCCCCC(=O)Nc1ccccc1)NO` [vorinostat] + COc1ccc(-c2ccc3c(N4CCOCC4)nc(N4C[C@@H](C)O[C@@H](C)C4)nc3n2)cc1CO [KU0063794] (first compound 0.4 µM, partner dose 0.1 µM) here?
Its cell count is 70.3%.

Which cell count does the source give for `Cn1c(Nc2ccc(C(F)(F)F)cc2)nc2cc(Oc3ccnc(-c4ncc(C(F)(F)F)[nH]4)c3)ccc21` + CN(C)S(=O)(=O)c1ccc2c(c1)/C(=C/c1cc3c([nH]1)CCCC3)C(=O)N2 [SU6656] (first compound 0.4 µM, partner dose 2 µM) here?
Its cell count is 71.3%.

Which cell count does the source give for `Clc1ccc(Nc2nnc(Cc3ccncc3)c3ccccc23)cc1` [vatalanib] + OCCn1cc(-c2cnc3nnn(Cc4ccc5ncccc5c4)c3n2)cn1 [PF04217903] (first compound 10 µM, partner dose 5 µM) here?
Its cell count is 73.8%.

Which cell count does the source give for `Nc1cccc2c1CN(C1CCC(=O)NC1=O)C2=O` (centres undefined) [lenalidomide] + COc1ccc2c(c1)CCC1C2CCC2(C)C(NCCCCCCN3C(=O)C=CC3=O)CCC12 [U73122] (first compound 5 µM, partner dose 2 µM) here?
Its cell count is 102%.

With `Cn1c(Nc2ccc(C(F)(F)F)cc2)nc2cc(Oc3ccnc(-c4ncc(C(F)(F)F)[nH]4)c3)ccc21` + COc1cc(N2CCC(N3CCN(C)CC3)CC2)ccc1Nc1ncc(Cl)c(Nc2ccccc2S(=O)(=O)C(C)C)n1 [NVP-TAE684] (first compound 0.4 µM, partner dose 0.4 µM) as the molecule, how does the cell count read?
Its cell count is 58.4%.

How did the cell count turn out when `C#Cc1cccc(Nc2ncnc3cc(OCCOC)c(OCCOC)cc23)c1` [erlotinib] + COc1cc2ncnc(Nc3ccc(Oc4ccccc4)cc3)c2cc1OC [SrcI1] (first compound 4 µM, partner dose 10 µM) was run?
The cell count was 59.2%.

Which cell count does the source give for `C#Cc1cccc(Nc2ncnc3cc(OCCOC)c(OCCOC)cc23)c1` [erlotinib] + Cc1cc([N+](=O)[O-])ccc1NS(=O)(=O)c1cc(Cl)ccc1Cl [FH535] (first compound 4 µM, partner dose 5 µM) here?
The cell count was 51.9%.

For `OCc1c[nH]c2ccccc12` [Indole-3-carbinol] + C#Cc1cccc(Nc2ncnc3cc(OCCOC)c(OCCOC)cc23)c1 [erlotinib] (first compound 4 µM, partner dose 4 µM), which cell count is on record?
Its cell count is 81.9%.

How did the cell count turn out when `Clc1ccc(Nc2nnc(Cc3ccncc3)c3ccccc23)cc1` [vatalanib] + O=C(O)c1ccc(-c2c[nH]c3ncc(-c4ccccc4)cc23)cc1C1CCCC1 [GSK650394] (first compound 10 µM, partner dose 0.8 µM) was run?
The cell count was 63.9%.

Which cell count does the source give for `Cn1c(Nc2ccc(C(F)(F)F)cc2)nc2cc(Oc3ccnc(-c4ncc(C(F)(F)F)[nH]4)c3)ccc21` + CO[C@@H]1[C@H](N(C)C(=O)c2ccccc2)C[C@H]2O[C@]1(C)n1c3ccccc3c3c4c(c5c6ccccc6n2c5c31)C(=O)NC4 [Midostaurin] (first compound 0.4 µM, partner dose 0.4 µM) here?
Its cell count is 54.4%.

With `Clc1ccc(Nc2nnc(Cc3ccncc3)c3ccccc23)cc1` [vatalanib] + COCC[n+]1c2c(n(Cc3cnccn3)c1C)C(=O)c1ccccc1C2=O [YM155] (first compound 10 µM, partner dose 0.002 µM) as the molecule, how does the cell count read?
Its cell count is 62.6%.

Which cell count does the source give for `Cn1c(Nc2ccc(C(F)(F)F)cc2)nc2cc(Oc3ccnc(-c4ncc(C(F)(F)F)[nH]4)c3)ccc21` + O=C(O)C(=O)Nc1sc2c(c1C(=O)O)CCNC2 [TCS401] (first compound 0.4 µM, partner dose 8.33333 µM) here?
Its cell count is 67.2%.

`O=C(CCCCCCC(=O)Nc1ccccc1)NO` [vorinostat] + COc1cc(Nc2ncc(F)c(Nc3ccc4c(n3)NC(=O)C(C)(C)O4)n2)cc(OC)c1OC [Tamatinib] (first compound 0.4 µM, partner dose 2 µM) was tested. Which cell count did it give?
Its cell count is 74.3%.

Which cell count does the source give for `O=C(CCCCCCC(=O)Nc1ccccc1)NO` [vorinostat] + N#Cc1c(O)c2c(-c3ccc(-c4ccccc4O)cc3)csc2[nH]c1=O [A769662] (first compound 0.4 µM, partner dose 10 µM) here?
Its cell count is 82.5%.

How did the cell count turn out when `Nc1cccc2c1CN(C1CCC(=O)NC1=O)C2=O` (centres undefined) [lenalidomide] + Cn1cc(/C=C2\C(=O)Nc3cccnc32)c2ccccc21 [GW441756] (first compound 5 µM, partner dose 2 µM) was run?
Its cell count is 97.4%.

`Clc1ccc(Nc2nnc(Cc3ccncc3)c3ccccc23)cc1` [vatalanib] + C=CCn1c(=O)c2cnc(Nc3ccc(N4CCN(C)CC4)cc3)nc2n1-c1cccc(C(C)(C)O)n1 [MK1775] (first compound 10 µM, partner dose 0.1 µM) was tested. Which cell count did it give?
The cell count was 65.3%.

For `COCC[n+]1c2c(n(Cc3cnccn3)c1C)C(=O)c1ccccc1C2=O` + O=c1cc(-c2cccc3c2Sc2ccccc2S3)oc(N2CCOCC2)c1 [KU55933] (first compound 0.002 µM, partner dose 5 µM), which cell count is on record?
The cell count was 72%.

With `Cn1c(Nc2ccc(C(F)(F)F)cc2)nc2cc(Oc3ccnc(-c4ncc(C(F)(F)F)[nH]4)c3)ccc21` + O=C(CCCCCCC(=O)Nc1ccccc1)NO [vorinostat] (first compound 0.4 µM, partner dose 0.4 µM) as the molecule, how does the cell count read?
Its cell count is 62.9%.

For `COCC[n+]1c2c(n(Cc3cnccn3)c1C)C(=O)c1ccccc1C2=O` + COc1cc2ncnc(Nc3ccc(Oc4ccccc4)cc3)c2cc1OC [SrcI1] (first compound 0.002 µM, partner dose 10 µM), which cell count is on record?
Its cell count is 83.7%.

For `COCC[n+]1c2c(n(Cc3cnccn3)c1C)C(=O)c1ccccc1C2=O` + Cc1ccc(NC(=O)c2cccc(N(C)C)c2)cc1NC(=O)c1ccc(O)cc1 [ZM336372] (first compound 0.002 µM, partner dose 10 µM), which cell count is on record?
The cell count was 94.7%.

With `COCC[n+]1c2c(n(Cc3cnccn3)c1C)C(=O)c1ccccc1C2=O` + CN(NC(=O)CC(=O)NN(C)C(=S)c1ccccc1)C(=S)c1ccccc1 [STA4783] (first compound 0.002 µM, partner dose 0.03 µM) as the molecule, how does the cell count read?
The cell count was 69.3%.

With `C#Cc1cccc(Nc2ncnc3cc(OCCOC)c(OCCOC)cc23)c1` [erlotinib] + Nc1cccc2c1CN(C1CCC(=O)NC1=O)C2=O [lenalidomide] (first compound 4 µM, partner dose 5 µM) as the molecule, how does the cell count read?
Its cell count is 81.4%.

For `Nc1cccc2c1CN(C1CCC(=O)NC1=O)C2=O` (centres undefined) [lenalidomide] + COC(=O)c1sccc1S(=O)(=O)Nc1ccc(Nc2ccccc2)cc1OC [GSK0660] (first compound 5 µM, partner dose 5 µM), which cell count is on record?
Its cell count is 98.8%.

How did the cell count turn out when `Nc1cccc2c1CN(C1CCC(=O)NC1=O)C2=O` (centres undefined) [lenalidomide] + NC(=O)Nc1cc(-c2cccc(F)c2)sc1C(=O)N[C@H]1CCCNC1 [AZD7762] (first compound 5 µM, partner dose 0.1 µM) was run?
The cell count was 81.4%.
